The whole screen tested about 48,000 compounds, of which about 1,200 (2.5%) were called active. Not shown: some 2% with an inconclusive outcome.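 How the source made its calls: active means activation of at least 60% and not above a set upper limit (about 1 call in 100 departs from these limits); inconclusive means activation of 40% to 60%, or above that upper limit; inactive means activation under 40%.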 Some of the results follow.
target: Probable G-protein coupled receptor 32 (Homo sapiens) (UniProt O75388); assay: qHTS for Agonists of Human Resolvin D1 Receptor DRV1; conditions: CHO-K1 GPR32 beta-arrestin PathHunter luminescence, 90 min; at 76.9 µM; active compounds read high; zero percent set by DMSO-only wells; further: 0% is about no effect
UniProt O75388, sequence (O75388 whole entry, looked up): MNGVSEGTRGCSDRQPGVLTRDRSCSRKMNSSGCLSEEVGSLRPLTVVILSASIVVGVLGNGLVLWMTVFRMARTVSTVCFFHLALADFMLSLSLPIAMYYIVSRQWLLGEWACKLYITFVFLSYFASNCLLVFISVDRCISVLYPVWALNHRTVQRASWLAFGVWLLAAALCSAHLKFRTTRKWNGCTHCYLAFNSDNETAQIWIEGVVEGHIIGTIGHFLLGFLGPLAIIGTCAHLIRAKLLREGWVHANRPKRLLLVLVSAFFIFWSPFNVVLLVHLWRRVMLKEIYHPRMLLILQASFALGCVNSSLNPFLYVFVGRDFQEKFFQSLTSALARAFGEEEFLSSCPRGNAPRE
How it was run: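 Luminescent readout of beta-Gal complementation quantifies ligand-induced beta-arrestin association with GPR32 in CHO-K1 cells; 90 min compound incubation at 37 °C, detection 1 h at room temperature.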

SMILES | activation
COc1ccc(Cn2c(C(=O)O)c(CNCc3ccccc3F)c3ccc(OC)cc32)cc1 | inactive: -4.6%
COc1cccc(C2C(C(=O)Nc3ccc(C)cc3C)=C(C)Nc3c(C(=O)Nc4ccccc4)cnn32)c1 (centres undefined) | inactive: -17.1%
O=C(Nc1nnc(S(=O)(=O)N2CCCc3ccccc32)s1)c1cccc(Cl)c1 | active: 73.8%
CCc1ccc(NC(=O)CSc2nc(=O)n(Cc3ccccn3)c3c2CCC3)cc1 | inactive: 0.0906%
CC1CCCN(C(=O)CSc2c3c(nc4cc(Cl)ccc24)CCCC3)C1 (centres undefined) | inactive: -9.01%
O=C(Nc1cc(-c2nc3cc(Cl)ccc3o2)ccc1Cl)c1ccco1 | inactive: 11.4%
NS(=O)(=O)c1cc(C(=O)O)c(NCc2ccco2)cc1Cl | inactive: -4.65%
CCc1cccc(C)c1NS(=O)(=O)c1c(C(=O)N2CCC(C)CC2)c(C)n(C)c1C | inactive: -17.9%
COc1ccc(S(=O)(=O)N2CCC(C(=O)Nc3ccc(Oc4ccccc4)cc3)CC2)cc1 | inactive: -3.93%
Oc1ccc(Cl)cc1Cc1cc(Cl)ccc1O | active: 69%
COc1ccc(NC(=O)c2cc(S(=O)(=O)N3CCOCC3)ccc2OC)cc1 | inactive: -12.3%
COc1cc(Cl)c(C)cc1NC(=O)C1CCN(c2nc3ccccc3n3cccc23)CC1 | inactive: -27.8%
Cc1ccc(C)c(NC(=O)N2CCN(C(=O)c3nsc4ccccc34)CC2)c1 | inactive: -6.33%
COc1ccc(S(=O)(=O)Nc2cccc(-c3ccc(N4CCCC4)nn3)c2)c(OC)c1 | inactive: -5.47%
COc1ccc(OC)c(NS(=O)(=O)c2ccc3c(c2)C(C)(C)C(=O)N3C)c1 | inactive: -6.53%
NC(=O)C1CCN(C(=O)c2ccc(NC(=O)c3nsc4ccccc34)cc2)CC1 | inactive: 1.97%
CCOc1ccccc1N(CC)C(=O)Cn1ncc2c([nH]c3ccccc32)c1=O | inactive: 16.3%
COc1ccc(CNC(=O)c2cc3cc4cc(OC)ccc4nc3o2)cc1 | inactive: -4.28%
COc1cccc(CNC(=O)c2ccc3c(c2)c(C)c(C)n3Cc2ccccc2)c1 | inactive: -14.7%
Cc1nnc(N2CCC(C(=O)NC3CCCCC3)CC2)c2nn(-c3ccccc3)c(C)c12 | inactive: -14.6%
Clc1cccc(-c2ccc(CNCCSc3nnnn3-c3ccccc3)o2)c1 | inactive: 14.6%

SMILES | activation
CC(=O)c1ccc(NC(=O)c2nc3ccccc3nc2N2CCCCC2)cc1 | inactive: -37.4%
O=C(c1ccccc1)N1CCN(CCc2ccncc2)CC1 | inactive: -3.09%
CCOC(=O)c1[nH]c(C)c(CCC(=O)N2CCN(c3cccc(OC)c3)CC2)c1C | inactive: -9.83%
CCCCN(CC)C(=O)CSc1nc2n[nH]c(C)c2c(=N)n1-c1cccc(Cl)c1 | inactive: -17.4%
CCC(=O)N1CCc2cc(Br)cc(S(=O)(=O)CCC(=O)NCc3ccccc3OC)c21 | inactive: -13.3%
CCOc1ccc(NC(=O)Cn2ncc3c2-c2cc(C)ccc2OC3)cc1 | inactive: -1.25%
Cc1ccc(NC(=O)Cc2ccc(-n3c(C)nc4cccnc43)cc2)c(Cl)c1 | inactive: 33.9%
Cc1ccc(-c2noc(-c3ccccc3NC(=O)c3ccccc3)n2)cc1 | inactive: 2.77%
Cc1ccc(CNC(=O)C(=O)Nc2c3c(nn2-c2ccccc2)CSC3)cc1 | inactive: -14%
COc1ccccc1C(=O)NCCn1cc(SCC(=O)Nc2ccccc2F)c2ccccc21 | inactive: 37.4%
COc1ccc(CCNC(=O)C(=O)Nc2ccccc2F)cc1 | inactive: -1.58%
CC1CCN(S(=O)(=O)c2ccc3c(c2)N(CC(=O)NC(C)c2ccccc2)C(=O)CS3)CC1 (centres undefined) | inactive: -1.13%
O=C(NCc1ccccc1)c1ccc(CNS(=O)(=O)c2ccc(Br)cc2)cc1 | inactive: 6.88%
COc1ccccc1CNS(=O)(=O)c1ccc2c(c1)CC(C)N2C(C)=O (centres undefined) | inactive: 40.3%
Cc1ccc(C)c(N2CCN(S(=O)(=O)c3ccc4[nH]c5c(c4c3)CCCCC5)CC2)c1 | inactive: -9.85%
CC(C)Cn1cc(NC(=O)N2CCN(c3cccc(Cl)c3)CC2)c2ccccc2c1=O | inactive: -52%
COc1cc(Cl)c(S(=O)(=O)NCCc2c(C)[nH]c3c(C)cccc23)cc1Cl | inactive: 4.81%
CCc1ccc(NC(=O)N2CCOc3ccc(Cl)cc32)cc1 | inactive: -13%
Cc1ccc(-c2nc(NC(=O)CSc3cc(C)c4ccccc4n3)ns2)cc1 | inactive: 1.74%
Cc1cc(C)c(NC(=O)c2cc(S(=O)(=O)N3CCC4(CC3)OCCO4)ccc2F)c(C)c1 | inactive: -9.52%
COC(=O)c1ccc(NC(=O)CC2C(=O)N(c3cccc(OC)c3)C(=O)N2Cc2cccs2)cc1 (centres undefined) | inactive: -26.2%

SMILES | activation
O=C(O)c1cc(=O)c2ccccc2o1 | inactive: -27.2%
COC(=O)c1cc2oc3ccccc3c2n1Cc1nc(-c2ccc(Cl)cc2)oc1C | inactive: -5.1%
CCN(C(=O)Cn1nnc2sc3c(c2c1=O)CCC(C(C)(C)C)C3)c1cccc(C)c1 (centres undefined) | inactive: -20.4%
CCCCn1c(SCC(=O)c2ccccc2)nc2c(sc3ccccc32)c1=O | inactive: 8.92%
Cc1nc2c(-c3ccc(F)cc3)c(C)nn2c(C)c1CCC(=O)N1CCN(c2ccccc2)CC1 | inactive: -6.06%
CCc1ccc(CNC(=O)c2nn(-c3ccc(C)cc3)c(=O)c3c2c2ccccc2n3C)cc1 | inactive: -8.66%
COc1cc(CCC(=O)NCc2ccc3c(c2)CCN3C(=O)c2ccccc2)cc(OC)c1OC | inactive: 1.47%
CC(=O)c1ccc(N2CCN(C(=O)C3CCCN(S(=O)(=O)c4ccc(Br)s4)C3)CC2)cc1 (centres undefined) | inactive: 25.5%
CCC1CN(S(=O)(=O)c2cc(-c3cc(C)no3)ccc2C)c2cc(C)ccc2O1 (centres undefined) | inactive: 6.23%
Cc1ccc(-n2nc3ccc(NC(=O)COc4ccccc4C)cc3n2)cc1 | inactive: 20.3%
Cc1ccc(-c2nnc(Nc3cccc(Cl)c3)c3ccccc23)cc1S(=O)(=O)N1CCCCC1 | inactive: -29.9%
Cc1ccc(-n2nc(CO)c(C(=O)NCCCCc3ccccc3)n2)cc1C | inactive: -23.8%
CSc1ccc(CCNC(=O)c2cc(C)nc3c2c(C)nn3-c2ccccc2)cc1 | inactive: -14.3%
COc1ccc(-c2nnc(SCC(=O)NCCc3ccc(OC)c(OC)c3)nc2-c2ccc(OC)cc2)cc1 | inactive: -24.7%
Cc1ccc(C)c(N2CCN(S(=O)(=O)c3cc(-c4cc(C)no4)ccc3C)CC2)c1 | inactive: -14.6%
O=C(CN1C(=O)C(c2ccc(F)cc2)=NC12CCCCCC2)Nc1ccccc1Cl | inactive: -27%
Cc1cc(C)c(NC(=O)Cn2nc(-c3ccncc3)ccc2=O)c(C)c1 | inactive: -7.01%
CCCn1c(=O)n(-c2ccccc2Cl)c(=O)c2sc3ccccc3c21 | inactive: -9.97%
COc1ccc(-c2ccc3c(N)c(C(=O)Nc4ccc(C(F)(F)F)cc4)sc3n2)cc1OC | inactive: 3.17%
CC1=Nc2cc(C(=O)NCc3ccccc3Cl)ccc2Sc2c(C)ccc(C)c21 | inactive: 10.3%
CCOc1ccc(CCNC(=O)c2cn(C)c3ccc(S(=O)(=O)N4CCCCC4)cc3c2=O)cc1OCC | inactive: -3.48%

SMILES | activation
Cc1cc(C)c(NC(=O)c2sc3nc(C)cc(C)c3c2NC(=O)c2ccccc2)c(C)c1 | inactive: -4.95%
CCOC(=O)c1c(C)[nH]c(C)c1S(=O)(=O)N1CCC(C(=O)Nc2cc(Cl)ccc2OC)CC1 | inactive: 8.23%
CC1=C(c2ccc(C)c(C)c2)S(=O)(=O)NC1=NCc1ccccc1Cl | inactive: -4.77%
COc1ccccc1C(=O)Nc1cccc(C(=O)OCc2cc(=O)n3cc(C)sc3n2)c1 | inactive: -16%
O=C(CCn1cnc2ccccc2c1=O)NCc1ccccc1Cl | inactive: 6.61%
CCc1nc2nc(C)c(NS(=O)(=O)c3ccc(C(C)(C)C)cc3)c(=O)n2[nH]1 | inactive: 21.2%
O=C(CNC(=O)c1ccc(F)cc1)OCc1cc(=O)n2nc(C3CC3)sc2n1 | inactive: 17.7%
Cc1c(C(=O)Nc2cccc(C(F)(F)F)c2)oc2ccc3c(c12)C(=O)CC(C)(C)O3 | inactive: 14.9%
CCc1nn2c(=O)cc(COC(=O)COc3ccc(OC)cc3)nc2s1 | inactive: 5.24%
COC(=O)CN1C(=O)CSc2ccc(S(=O)(=O)Nc3cc(C)ccc3C)cc21 | inactive: 8.6%
CCC(=O)N1c2ccccc2CC1C(=O)NCCc1ccc(OC)c(OC)c1 (centres undefined) | inactive: -13.4%
CCOC(=O)c1sc2ncn(CC(=O)Nc3ccc(OCC)cc3)c(=O)c2c1C | inactive: -4.91%
COc1ccc(-c2nc(C)c(CCNS(=O)(=O)c3cc(Cl)ccc3Cl)s2)cc1 | inactive: -2.45%
CCc1ccc(S(=O)(=O)Nc2cc3c(C(=O)OCc4ccccc4)c(C)oc3c3ccccc23)cc1 | inactive: 6.78%
Cc1c(NC(=O)c2ccc(-c3cccc([N+](=O)[O-])c3)o2)cccc1-c1nc2cc(Cl)ccc2o1 | inactive: -6.24%
COc1cccc(-n2c(=O)c3sc4ccccc4c3n(CC(=O)NC3CCCCC3)c2=O)c1 | inactive: -2.76%
CCOC(=O)c1cc2c(=O)n3ccccc3nc2n(CCOC)c1=NC(=O)c1c(-c2ccccc2Cl)noc1C | inactive: -5.24%
Cn1c(=O)oc2cc(S(=O)(=O)NCCC(=O)Nc3ccc(F)cc3F)ccc21 | inactive: 6.64%
CCN(CC)S(=O)(=O)c1ccc(OC)c(-n2cnnn2)c1 | inactive: 0.0111%
Cc1cc(OCC(=O)Nc2ncn[nH]2)ccc1Cl | inactive: 16.7%
Cc1ccc(S(=O)(=O)N(CC(=O)Nc2ccc3c(c2)OCO3)c2cc(Cl)cc(Cl)c2)cc1 | inactive: -8.53%

Reference: PubChem BioAssay AID1346428 (National Center for Advancing Translational Sciences (NCATS), 2018)
